Results published in PubChem BioAssay AID485294 (National Center for Advancing Translational Sciences (NCATS), 2010).
Hit rate of the full screen: of about 370,000 compounds, about 150 (0.041%) were called active. The inconclusive results got no clear call from the source; some entries with a clear call stand among them for comparison. Calls come from the whole dose curve; as a rule, active = well fitted inhibition curve with a large enough effect; inconclusive = small, poorly fitted or top-dose-only effect; inactive = flat fitted curve, though single readings scatter. Potencies of inconclusive entries are left out as doubtful fits.

The compounds below were run against Beta-lactamase (Escherichia coli (strain K12)) (UniProt P00811) (assay: qHTS Inhibitors of AmpC Beta-Lactamase (assay with detergent)). Conditions: AmpC hydrolysis of nitrocefin, absorbance 480 nm, 0.01% Triton; series mostly up to 114 µM.
Sequence of UniProt P00811 (P00811 whole entry, looked up): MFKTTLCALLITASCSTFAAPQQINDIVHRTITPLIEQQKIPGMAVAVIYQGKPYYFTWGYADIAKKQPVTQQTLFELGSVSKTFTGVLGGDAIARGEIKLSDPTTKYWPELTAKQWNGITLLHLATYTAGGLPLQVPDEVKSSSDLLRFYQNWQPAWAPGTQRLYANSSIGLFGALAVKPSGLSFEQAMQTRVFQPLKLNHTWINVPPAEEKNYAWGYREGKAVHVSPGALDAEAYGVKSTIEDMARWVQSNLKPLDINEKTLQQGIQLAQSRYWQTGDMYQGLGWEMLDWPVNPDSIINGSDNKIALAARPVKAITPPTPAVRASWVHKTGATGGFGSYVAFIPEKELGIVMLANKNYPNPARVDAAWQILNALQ
In short: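 20 mM phosphate pH 7.0 + 0.01% (detergent screen) or 0.0001% Triton X-100; 5.3 nM AmpC reagent; cpd preinc 15 min RT; nitrocefin (800 uM stock) to start; A480 q20 s × 4 min; Activity was normalised to no-enzyme and no-compound control wells.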
Note: nearly all actives have a fitted effect of over 25% in size.
Potency is the fitted concentration of half-maximal effect; tags give direction and shape of the fitted curve.

SMILES	Potency
Cc1cc(C)n(-c2ccc(NC(=O)C3CCN(Cc4cnc(C)s4)CC3)cc2)n1	inconclusive [inhibitor, full curve, poor fit]
CCOC(=O)CN(C(=O)CSc1nnc(COc2ccc(OC)cc2)n1C)c1ccccc1	inconclusive [inhibitor, partial curve, poor fit]
CCOC(=O)c1c(C)[nH]c(C)c1C(=O)COC(=O)[C@@H](NC(=O)c1ccccc1OCC)C(C)C	inconclusive [inhibitor, single point]
O=C(CSc1ccc(F)cc1)NC1CCCCC1	inactive
O=C(N/N=C/c1ccc(F)c(F)c1)c1cccc(S(=O)(=O)N2CCCCC2)c1	inconclusive [inhibitor, full curve]
Cc1cc2c(c(=O)o1)C1O[C@](CCCCN3C(=O)c4ccccc4C3=O)(Cc3cc(C#N)ccc31)O2	inconclusive [inhibitor, full curve, poor fit]
Cc1ccc(NC(=O)NC2CC(=O)N(c3ccc4c(c3)OCCO4)C2)c(C)c1 (stereo not drawn)	inconclusive [inhibitor, single point]
N#C/C(=C\c1ccc(-c2ccc(C(=O)O)cc2)o1)c1nc2ccccc2[nH]1	inactive
COc1ccc(Cl)cc1NC(=O)Cn1cc(S(=O)(=O)Cc2cccc(Cl)c2)c2ccccc21	inactive
Cc1cc(C)n(CC(O)COc2cccc(OCC(O)Cn3nc(C)cc3C)c2)n1 (stereo not drawn)	inconclusive [inhibitor, full curve, poor fit]
COc1ccc(NC(=O)c2sc3nc[nH]c(=O)c3c2C)cc1OC	inactive
Cc1cccc(/C(N)=N/OC(=O)c2ccc(Br)o2)c1	inactive
Cc1ccccc1N=CC=C1OC(C)(C)C(C)(C)O1	inconclusive [inhibitor, partial curve, poor fit]
COc1ccccc1/C=C1\SC(=S)N(CCC(=O)NC2=NCCS2)C1=O	inactive
FC(F)(F)c1nnc2c(Sc3ccccc3)nc3ccccc3n12	inconclusive [inhibitor, single point]
COc1ccc(NCc2nnc(SCC(=O)NNC(=O)c3ccc(C)cc3)n2C)cc1	inconclusive [inhibitor, full curve, poor fit]
CCn1c(-c2ccccc2)c(C(=O)O)c2ccccc21	inconclusive [inhibitor, partial curve, poor fit]
CCOc1ccc(S(=O)(=O)N2CCC(C(=O)N3CCOCC3)CC2)cc1C	inconclusive [inhibitor, single point]
CN(c1cccc(NC(=O)c2ccc(Cl)c(S(=O)(=O)Nc3ccccc3)c2)c1)S(C)(=O)=O	inconclusive [inhibitor, full curve, poor fit]
O=C(NC1CCCCC1)C12CC3CC(C1)CC(n1cncn1)(C3)C2	inactive
O=C(/C=C/c1ccccc1)Nc1cc(NC(=O)/C=C/c2ccccc2)cc(C(=O)O)c1	inconclusive [inhibitor, full curve, poor fit]
COc1cc(/C=C/c2ccc3c([N+](=O)[O-])cccc3n2)ccc1OCC(=O)O	inconclusive [inhibitor, full curve]

SMILES	Potency
COc1ccccc1/C=N/NC(=O)c1ccc2c(c1)OCO2	inactive
O=Cc1ccccc1Oc1nc(N2CCOCC2)nc(N2CCOCC2)n1	inconclusive [inhibitor, full curve, poor fit]
Cc1nn(Cc2c(Cl)cccc2Cl)c(Cl)c1/C=N/NC(=O)c1cccnc1	inconclusive [inhibitor, partial curve, poor fit]
Cc1ccc(CSc2nc3c(c(=O)[nH]2)C(c2cccc(F)c2F)CC(=O)N3)cc1 (stereo not drawn)	inactive
CC(=O)c1cccc(NC(=O)c2ccc3nc(C(C)C)oc3c2)c1	inactive
CCN(C(=O)CSc1ccc2c(c1)OCCO2)C1CCS(=O)(=O)C1 (stereo not drawn)	inconclusive [inhibitor, partial curve, poor fit]
O=CN1CCN(C2CC(=O)N(c3ccc(Br)cc3)C2=O)CC1 (stereo not drawn)	inconclusive [inhibitor, full curve]
COc1ccc(-c2cc(C(F)F)n3ncc(C(=O)Nc4c(C)n(C)n(-c5ccccc5)c4=O)c3n2)cc1	inactive
NC(=O)C1(N2CCCCC2)CCN(CC(=O)Nc2cc(Cl)ccc2Cl)CC1	inconclusive [inhibitor, full curve, poor fit]
COc1ccccc1N1CCN(S(=O)(=O)CCNC(=O)CCCc2ccccc2)CC1	inconclusive [inhibitor, full curve, poor fit]
O=C(COC(=O)COc1ccccc1[N+](=O)[O-])Nc1ccccc1Br	inconclusive [inhibitor, partial curve, poor fit]
COc1ccc(OC(C)C(=O)N(C)Cc2nc(-c3ccccc3)no2)cc1 (stereo not drawn)	inconclusive [inhibitor, full curve, poor fit]
Cc1cc(C)cc(N(CC(=O)NCc2ccco2)S(=O)(=O)c2c(C)noc2C)c1	inconclusive [inhibitor, full curve, poor fit]
Clc1ccccc1OCc1nnc(-c2ccccc2)o1	inactive
COc1ccc(/C=C(/NC(=O)c2ccccc2)C(=O)N2CCC(C)CC2)cc1	inactive
O=C(CN1C(=O)c2ccccc2S1(=O)=O)NC1CCCCCC1	inconclusive [inhibitor, full curve, poor fit]
COc1ccc(Cn2c(CO)cnc2SCC(=O)NCc2ccco2)cc1	inactive
NC(=O)CCS(=O)(=O)c1ccccc1	inconclusive [inhibitor, partial curve, poor fit]
Cc1nc2ccccn2c1C(=O)Nc1ccc(Cl)cc1	inactive
Cc1occc1-c1nnc(SCC(=O)Nc2nccs2)n1CCc1ccccc1	inconclusive [inhibitor, full curve, poor fit]
CN(C)c1ccc(C(=O)c2ccccc2)cc1	inactive
